# Assay results from the supplement of paper PMC6206098.
# ± gives the uncertainty stated by the source. Shown are siRNA guide strands that differ only in the seed, positions 2 to 7.
# What was measured:
# 3LL = test: cell viability relative to siNT1 control; higher = less toxic; conditions: concentration: 10 nM; 96 h; Mus musculus;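 also: Luminescence-based viability of cells reverse transfected in 384-well plates with lipid-complexed siRNAs built on a non-toxic 19mer backbone whose passenger strand carries 2′-O-methyl groups at positions 1 and 2, triplicates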
# H460 = test: cell viability relative to lipid-only control; HeyA8 human ovarian and H460 human lung cancer; M565 mouse liver and 3LL mouse lung cancer; siNT1 is a non-toxic control siRNA; higher = less toxic; conditions: concentration: 10 nM; 96 h; Homo sapiens
# HeyA8 = test: as above; conditions: concentration: 10 nM; 96 h; Homo sapiens
# M565 = test: as above; conditions: concentration: 10 nM; 96 h; Mus musculus
# 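For cell viability relative to lipid-only control in this document: reverse lipid transfection in 384-well plates, in triplicate, of duplexes on a non-toxic 19mer backbone with passenger strand 2′-O-methylated at positions 1 and 2, luminescence viability read-out.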
sequence,measurement,setting,value
UAAGUUGACAUGUAAACCAAA,cell viability,3LL,85.4 ± 6.9%
same,cell viability,H460,65.3 ± 5.5%
same,cell viability,HeyA8,77.7 ± 13%
same,cell viability,M565,69.4 ± 3.8%
UUAACUGACAUGUAAACCAAA,cell viability,3LL,101 ± 10%
same,cell viability,H460,77.3 ± 7.7%
same,cell viability,HeyA8,103 ± 11%
same,cell viability,M565,82.9 ± 11%
UGCCGUCACAUGUAAACCAAA,cell viability,3LL,46.4 ± 7.1%
same,cell viability,H460,50.7 ± 5.6%
same,cell viability,HeyA8,27 ± 0.91%
same,cell viability,M565,8.92 ± 7.6%
UCAUGACACAUGUAAACCAAA,cell viability,3LL,37.4 ± 6.8%
same,cell viability,H460,36 ± 3.2%
same,cell viability,HeyA8,28.4 ± 1.6%
same,cell viability,M565,29.9 ± 2.2%
UAUAAAAACAUGUAAACCAAA,cell viability,3LL,103 ± 20%
same,cell viability,H460,70.3 ± 10%
same,cell viability,HeyA8,103 ± 14%
same,cell viability,M565,86.6 ± 9%
UAGCCAUACAUGUAAACCAAA,cell viability,3LL,87.1 ± 5.1%
same,cell viability,H460,40.7 ± 2%
same,cell viability,HeyA8,58.6 ± 4.4%
same,cell viability,M565,28.2 ± 7.1%
UCACUAGACAUGUAAACCAAA,cell viability,3LL,92.1 ± 17%
same,cell viability,H460,32.5 ± 10%
same,cell viability,HeyA8,77.5 ± 5.9%
same,cell viability,M565,69.5 ± 7.6%
UUCAGCGACAUGUAAACCAAA,cell viability,3LL,94 ± 8.3%
same,cell viability,H460,71.4 ± 7.6%
same,cell viability,HeyA8,75.2 ± 12%
same,cell viability,M565,113 ± 15%
UUAUGGAACAUGUAAACCAAA,cell viability,3LL,72.9 ± 3.7%
same,cell viability,H460,53.2 ± 6.7%
same,cell viability,HeyA8,44.7 ± 3.8%
same,cell viability,M565,25.9 ± 5.7%
UUUUAACACAUGUAAACCAAA,cell viability,3LL,89.9 ± 3.7%
same,cell viability,H460,82.2 ± 5.1%
same,cell viability,HeyA8,92.4 ± 6.8%
same,cell viability,M565,117 ± 7.9%
UAAAGUAACAUGUAAACCAAA,cell viability,3LL,110 ± 8.1%
same,cell viability,H460,80.1 ± 9.4%
same,cell viability,HeyA8,97 ± 8.1%
same,cell viability,M565,88.3 ± 19%
UGGGGACACAUGUAAACCAAA,cell viability,3LL,30.9 ± 4.3%
same,cell viability,H460,33.3 ± 3%
same,cell viability,HeyA8,9.99 ± 0.62%
same,cell viability,M565,17.6 ± 2.8%
UAAUUGGACAUGUAAACCAAA,cell viability,3LL,96.7 ± 11%
same,cell viability,H460,70.2 ± 6.8%
same,cell viability,HeyA8,72.3 ± 4.6%
same,cell viability,M565,71.3 ± 10%
UCAUUUGACAUGUAAACCAAA,cell viability,3LL,87.9 ± 15%
same,cell viability,H460,55.9 ± 6.8%
same,cell viability,HeyA8,53.3 ± 4.8%
same,cell viability,M565,65.3 ± 6.9%
UAACUGGACAUGUAAACCAAA,cell viability,3LL,50.6 ± 15%
same,cell viability,H460,54.2 ± 6.3%
same,cell viability,HeyA8,16.6 ± 3%
same,cell viability,M565,34.6 ± 10%
UCCUAAUACAUGUAAACCAAA,cell viability,3LL,91.1 ± 14%
same,cell viability,H460,75.3 ± 13%
same,cell viability,HeyA8,87.7 ± 4.6%
same,cell viability,M565,62.5 ± 10%
UGGUGCCACAUGUAAACCAAA,cell viability,3LL,1.77 ± 0.35%
same,cell viability,H460,6.08 ± 1.8%
same,cell viability,HeyA8,4.88 ± 3.9%
same,cell viability,M565,4.69 ± 0.66%
UUGCGUAACAUGUAAACCAAA,cell viability,3LL,84.7 ± 6.5%
same,cell viability,H460,87 ± 7.5%
same,cell viability,HeyA8,97.8 ± 5.2%
same,cell viability,M565,98 ± 18%
UCCUGCCACAUGUAAACCAAA,cell viability,3LL,11.9 ± 2.1%
same,cell viability,H460,43.7 ± 4.7%
same,cell viability,HeyA8,20 ± 2.7%
same,cell viability,M565,3.23 ± 0.83%
UGUGCGGACAUGUAAACCAAA,cell viability,3LL,62 ± 12%
same,cell viability,H460,58.2 ± 8.4%
same,cell viability,HeyA8,19.3 ± 2.7%
same,cell viability,M565,20.4 ± 1.8%
UGCGACGACAUGUAAACCAAA,cell viability,3LL,95.8 ± 12%
same,cell viability,H460,74 ± 7.7%
same,cell viability,HeyA8,83.8 ± 9.2%
same,cell viability,M565,76.6 ± 4.4%
UGGGCUGACAUGUAAACCAAA,cell viability,3LL,4.74 ± 0.73%
same,cell viability,H460,11.6 ± 0.82%
same,cell viability,HeyA8,1.43 ± 5.3%
same,cell viability,M565,7.74 ± 3.7%
UGCUCGGACAUGUAAACCAAA,cell viability,3LL,84.2 ± 7.1%
same,cell viability,H460,58.3 ± 1.8%
same,cell viability,HeyA8,28.3 ± 3.5%
same,cell viability,M565,50.1 ± 0.79%
UCCCCAGACAUGUAAACCAAA,cell viability,3LL,109 ± 19%
same,cell viability,H460,95.1 ± 11%
same,cell viability,HeyA8,79.3 ± 4.2%
same,cell viability,M565,51.7 ± 13%
UCGACAGACAUGUAAACCAAA,cell viability,3LL,90.3 ± 17%
same,cell viability,H460,69.8 ± 8.2%
same,cell viability,HeyA8,93.1 ± 8.4%
same,cell viability,M565,61.8 ± 9.1%
UACUGGUACAUGUAAACCAAA,cell viability,3LL,53.6 ± 4.1%
same,cell viability,H460,72.4 ± 8.2%
same,cell viability,HeyA8,41.01 ± 0.32%
same,cell viability,M565,36.5 ± 6.7%
UUGCCGCACAUGUAAACCAAA,cell viability,3LL,3.79 ± 0.23%
same,cell viability,H460,61.6 ± 2.8%
same,cell viability,HeyA8,63.4 ± 6.7%
same,cell viability,M565,14.4 ± 3.1%
UUGGCACACAUGUAAACCAAA,cell viability,3LL,57.1 ± 4.6%
same,cell viability,H460,67.3 ± 6.5%
same,cell viability,HeyA8,41.4 ± 5%
same,cell viability,M565,38.7 ± 11%
UAACCGUACAUGUAAACCAAA,cell viability,3LL,91.9 ± 6.5%
same,cell viability,H460,64.9 ± 5.9%
same,cell viability,HeyA8,86.4 ± 5.5%
same,cell viability,M565,22.8 ± 5%
UAGUGUGACAUGUAAACCAAA,cell viability,3LL,93.3 ± 8%
same,cell viability,H460,56 ± 1.1%
same,cell viability,HeyA8,55.8 ± 4.5%
same,cell viability,M565,57.9 ± 8.9%
UUAUAUAACAUGUAAACCAAA,cell viability,3LL,86.7 ± 6.8%
same,cell viability,H460,68.3 ± 13%
same,cell viability,HeyA8,102 ± 3.5%
same,cell viability,M565,93 ± 12%
UCUCCGCACAUGUAAACCAAA,cell viability,3LL,45.2 ± 5.7%
same,cell viability,H460,36.9 ± 2.1%
same,cell viability,HeyA8,55.3 ± 2%
same,cell viability,M565,44.6 ± 5.4%
UAAUAGUACAUGUAAACCAAA,cell viability,3LL,5.85 ± 2.3%
same,cell viability,H460,43.7 ± 3.8%
same,cell viability,HeyA8,62.5 ± 4.7%
same,cell viability,M565,29.3 ± 8.2%
UUAAGCAACAUGUAAACCAAA,cell viability,3LL,93.7 ± 9.2%
same,cell viability,H460,70.6 ± 5.3%
same,cell viability,HeyA8,101 ± 4.9%
same,cell viability,M565,81.3 ± 9.1%
UCUAUAGACAUGUAAACCAAA,cell viability,3LL,94.7 ± 11%
same,cell viability,H460,70.4 ± 2.1%
same,cell viability,HeyA8,92.7 ± 13%
same,cell viability,M565,70.8 ± 8.6%
UCUUCUGACAUGUAAACCAAA,cell viability,3LL,92.6 ± 13%
same,cell viability,H460,67.8 ± 3%
same,cell viability,HeyA8,88.6 ± 6.5%
same,cell viability,M565,63.8 ± 13%
UCCUCCGACAUGUAAACCAAA,cell viability,3LL,86.9 ± 14%
same,cell viability,H460,61.5 ± 8.4%
same,cell viability,HeyA8,86.9 ± 4.8%
same,cell viability,M565,65.8 ± 8.5%
UGCCCAAACAUGUAAACCAAA,cell viability,3LL,72 ± 14%
same,cell viability,H460,101 ± 3.1%
same,cell viability,HeyA8,57.2 ± 5.6%
same,cell viability,M565,57 ± 10%
UGGUUCGACAUGUAAACCAAA,cell viability,3LL,74.3 ± 1.7%
same,cell viability,H460,52.6 ± 5.6%
same,cell viability,HeyA8,54.2 ± 4.8%
same,cell viability,M565,29.4 ± 10%
UUGAUACACAUGUAAACCAAA,cell viability,3LL,81.2 ± 3.2%
same,cell viability,H460,55.6 ± 2.7%
same,cell viability,HeyA8,76.8 ± 1.4%
same,cell viability,M565,61.7 ± 6.9%
UUUUGAAACAUGUAAACCAAA,cell viability,3LL,92.9 ± 2.1%
same,cell viability,H460,64.3 ± 7.2%
same,cell viability,HeyA8,101 ± 3.3%
same,cell viability,M565,91.8 ± 7.6%
UCGAUAGACAUGUAAACCAAA,cell viability,3LL,86.4 ± 17%
same,cell viability,H460,79.8 ± 16%
same,cell viability,HeyA8,90.4 ± 11%
same,cell viability,M565,63.8 ± 7.5%
UCACACGACAUGUAAACCAAA,cell viability,3LL,92.8 ± 10%
same,cell viability,H460,23.2 ± 4.1%
same,cell viability,HeyA8,75.2 ± 1.3%
same,cell viability,M565,63.5 ± 7.9%
UUGCGGAACAUGUAAACCAAA,cell viability,3LL,82.3 ± 3.2%
same,cell viability,H460,70.9 ± 7.3%
same,cell viability,HeyA8,90.5 ± 4.5%
same,cell viability,M565,61.5 ± 2.5%
UGUUCAAACAUGUAAACCAAA,cell viability,3LL,94.7 ± 8.4%
same,cell viability,H460,87.3 ± 27%
same,cell viability,HeyA8,74.1 ± 6.5%
same,cell viability,M565,33.5 ± 1.4%
UCAAGCCACAUGUAAACCAAA,cell viability,3LL,38.4 ± 14%
same,cell viability,H460,32.6 ± 2.1%
same,cell viability,HeyA8,30.7 ± 2.4%
same,cell viability,M565,5.41 ± 1.4%
UGUCCGCACAUGUAAACCAAA,cell viability,3LL,8.62 ± 3%
same,cell viability,H460,32.8 ± 1.4%
same,cell viability,HeyA8,51.9 ± 3.2%
same,cell viability,M565,5.64 ± 1.3%
UCGGGUUACAUGUAAACCAAA,cell viability,3LL,87.1 ± 15%
same,cell viability,H460,68.7 ± 10%
same,cell viability,HeyA8,51.3 ± 6.9%
same,cell viability,M565,41.4 ± 3.6%
UUGACCAACAUGUAAACCAAA,cell viability,3LL,67.6 ± 9%
same,cell viability,H460,58.2 ± 5.7%
same,cell viability,HeyA8,76.4 ± 4.5%
same,cell viability,M565,38.6 ± 7.6%
UUUGGUAACAUGUAAACCAAA,cell viability,3LL,102 ± 6.7%
same,cell viability,H460,90.2 ± 9.4%
same,cell viability,HeyA8,105 ± 5.8%
same,cell viability,M565,80 ± 21%
UAUCGGUACAUGUAAACCAAA,cell viability,3LL,72.3 ± 2.5%
same,cell viability,H460,99.1 ± 12%
same,cell viability,HeyA8,80.5 ± 10%
same,cell viability,M565,56.5 ± 12%
UUUCUGGACAUGUAAACCAAA,cell viability,3LL,21.8 ± 4.3%
same,cell viability,H460,46.2 ± 11%
same,cell viability,HeyA8,32.3 ± 6%
same,cell viability,M565,29.6 ± 11%
UUUGACCACAUGUAAACCAAA,cell viability,3LL,47.2 ± 1.3%
same,cell viability,H460,42.4 ± 4.8%
same,cell viability,HeyA8,37.7 ± 2.6%
same,cell viability,M565,24.6 ± 2%
UAGUGCGACAUGUAAACCAAA,cell viability,3LL,80.9 ± 9.9%
same,cell viability,H460,70.3 ± 1.9%
same,cell viability,HeyA8,90.6 ± 17%
same,cell viability,M565,81.4 ± 4.1%
UCGGACUACAUGUAAACCAAA,cell viability,3LL,41.3 ± 8.1%
same,cell viability,H460,42.9 ± 3%
same,cell viability,HeyA8,61.7 ± 2.3%
same,cell viability,M565,27.3 ± 6.1%
UCACUCUACAUGUAAACCAAA,cell viability,3LL,56.8 ± 13%
same,cell viability,H460,24.1 ± 1%
same,cell viability,HeyA8,75.5 ± 9.2%
same,cell viability,M565,49.9 ± 5.9%
UCUCGGCACAUGUAAACCAAA,cell viability,3LL,83.7 ± 11%
same,cell viability,H460,25.6 ± 3.6%
same,cell viability,HeyA8,25.3 ± 0.61%
same,cell viability,M565,23.5 ± 4%
UUCGCCAACAUGUAAACCAAA,cell viability,3LL,76.4 ± 29%
same,cell viability,H460,86 ± 19%
same,cell viability,HeyA8,101 ± 13%
same,cell viability,M565,82.8 ± 12%
UAACUGUACAUGUAAACCAAA,cell viability,3LL,34.8 ± 5.7%
same,cell viability,H460,57.9 ± 3.8%
same,cell viability,HeyA8,25.2 ± 2.9%
same,cell viability,M565,16.5 ± 3.1%
